In PubChem BioAssay AID504333 (National Center for Advancing Translational Sciences (NCATS), 2011):
The whole screen tested about 360,000 compounds, of which about 16,000 (4.4%) were called active. Inconclusive means that the source gave no clear call. Such entries were picked first, then a sample of the others. The call rests on the fitted dose curve; in most records, active means well fitted inhibition curve with a large enough effect; inconclusive means small, poorly fitted or top-dose-only effect; inactive means no such curve, though single readings can be large or run the other way. Where the call is inconclusive, the potency comes from a doubtful curve fit.
Further: nearly all actives have a fitted effect of over 60% in size.
On the % scale 0 is the no-effect control and ±100 the full control effect; potency means the concentration at half of the fitted maximal effect; tags describe the fitted curve by direction and shape.

The molecules below were run against Bromodomain adjacent to zinc finger domain protein 2B (Homo sapiens) (UniProt Q9UIF8) (assay: qHTS Assay for Inhibitors of BAZ2B). Conditions: AlphaScreen BAZ2B-H3K14Ac peptide displacement; activity change, negative = inhibition: at 114 µM (top of the series) unless noted.
Chain of UniProt Q9UIF8 (Q9UIF8 whole entry, looked up, the tested form may be a part): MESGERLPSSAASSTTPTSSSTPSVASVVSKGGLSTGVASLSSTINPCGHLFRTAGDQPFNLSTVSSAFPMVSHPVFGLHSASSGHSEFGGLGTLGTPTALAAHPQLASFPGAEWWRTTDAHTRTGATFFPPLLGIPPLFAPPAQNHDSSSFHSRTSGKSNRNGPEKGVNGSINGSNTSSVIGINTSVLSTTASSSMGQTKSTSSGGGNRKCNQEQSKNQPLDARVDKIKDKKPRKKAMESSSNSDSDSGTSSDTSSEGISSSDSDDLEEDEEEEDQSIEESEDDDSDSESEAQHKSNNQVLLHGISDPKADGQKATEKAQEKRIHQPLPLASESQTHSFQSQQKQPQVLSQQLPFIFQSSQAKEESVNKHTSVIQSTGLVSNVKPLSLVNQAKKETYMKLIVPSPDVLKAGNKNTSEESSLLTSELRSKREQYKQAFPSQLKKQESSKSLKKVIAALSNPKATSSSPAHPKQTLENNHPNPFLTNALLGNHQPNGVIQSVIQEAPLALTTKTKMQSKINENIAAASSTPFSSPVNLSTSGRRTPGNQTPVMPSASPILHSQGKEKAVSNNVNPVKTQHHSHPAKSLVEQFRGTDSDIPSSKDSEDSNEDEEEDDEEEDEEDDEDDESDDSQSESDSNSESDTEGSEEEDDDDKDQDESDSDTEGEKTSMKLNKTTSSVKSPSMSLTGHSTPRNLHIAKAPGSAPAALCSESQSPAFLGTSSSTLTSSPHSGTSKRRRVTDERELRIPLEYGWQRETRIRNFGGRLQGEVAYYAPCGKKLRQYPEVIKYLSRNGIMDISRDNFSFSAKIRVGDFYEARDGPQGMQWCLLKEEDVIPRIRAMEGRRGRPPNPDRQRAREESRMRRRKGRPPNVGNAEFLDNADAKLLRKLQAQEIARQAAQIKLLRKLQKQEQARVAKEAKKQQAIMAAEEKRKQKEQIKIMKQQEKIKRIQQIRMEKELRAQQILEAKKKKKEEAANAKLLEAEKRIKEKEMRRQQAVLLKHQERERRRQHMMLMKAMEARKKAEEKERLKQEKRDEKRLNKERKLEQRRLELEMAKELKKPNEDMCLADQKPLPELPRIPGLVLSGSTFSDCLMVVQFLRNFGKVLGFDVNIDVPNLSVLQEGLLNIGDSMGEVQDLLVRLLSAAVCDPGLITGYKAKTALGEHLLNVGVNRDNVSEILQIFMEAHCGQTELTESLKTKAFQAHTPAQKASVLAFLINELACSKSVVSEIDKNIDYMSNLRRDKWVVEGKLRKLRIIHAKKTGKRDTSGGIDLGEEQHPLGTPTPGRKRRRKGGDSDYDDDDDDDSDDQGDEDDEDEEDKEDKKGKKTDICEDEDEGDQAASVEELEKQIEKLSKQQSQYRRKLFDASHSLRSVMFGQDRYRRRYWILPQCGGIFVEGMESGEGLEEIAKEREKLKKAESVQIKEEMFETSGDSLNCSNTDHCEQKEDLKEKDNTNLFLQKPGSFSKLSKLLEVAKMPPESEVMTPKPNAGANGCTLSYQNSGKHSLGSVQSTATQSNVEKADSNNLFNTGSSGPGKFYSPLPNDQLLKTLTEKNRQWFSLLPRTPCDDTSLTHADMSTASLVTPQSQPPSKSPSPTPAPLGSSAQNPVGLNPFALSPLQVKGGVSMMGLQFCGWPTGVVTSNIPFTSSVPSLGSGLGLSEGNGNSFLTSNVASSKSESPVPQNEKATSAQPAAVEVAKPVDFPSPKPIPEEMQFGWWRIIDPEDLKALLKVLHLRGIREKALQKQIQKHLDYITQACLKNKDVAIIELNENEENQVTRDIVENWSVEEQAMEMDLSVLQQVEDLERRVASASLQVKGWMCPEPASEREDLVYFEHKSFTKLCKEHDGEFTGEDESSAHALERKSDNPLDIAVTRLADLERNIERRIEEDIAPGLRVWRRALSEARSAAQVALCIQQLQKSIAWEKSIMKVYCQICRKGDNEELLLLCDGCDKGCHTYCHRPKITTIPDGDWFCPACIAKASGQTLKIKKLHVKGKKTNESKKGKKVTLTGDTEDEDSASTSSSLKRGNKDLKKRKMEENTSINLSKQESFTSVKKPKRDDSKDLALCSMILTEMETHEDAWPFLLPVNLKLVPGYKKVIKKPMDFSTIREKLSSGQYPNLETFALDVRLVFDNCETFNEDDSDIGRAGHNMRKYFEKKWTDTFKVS
Summary of the method: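 AlphaScreen displacement of biotin-H3(5-23)K14Ac peptide (50 nM final) from BAZ2B (50 nM final) in PBS pH 7.4, 0.01% Tween-20; complex preformed 30 min RT, then compounds (top 110 uM) 30 min RT, beads 20 min dark.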
For `O=C(CNC(=O)c1cccs1)Nc1ccc(N2CCOCC2)cc1`, the “activity change, negative = inhibition” value was inactive: 3.37%.
With `COc1ccc(-c2nnc(SCC(=O)NCc3ccccc3)nc2-c2ccc(OC)c(OC)c2)cc1OC` the Potency was inconclusive: 79.4 µM [inhibitor, partial curve].
For `Cc1ccc(C(=O)c2c3ccc([N+](=O)[O-])cc3[n+]([O-])n2CCCN)cc1`, the Potency was inconclusive: 50.1 µM [inhibitor, partial curve].
In the case of `O=C1CC(c2ccco2)CC(O)=C1C=Nc1cc(Cl)ccc1O` (stereo unspecified), the Potency was active: 44.7 µM.
In the case of `N#CCc1ccc(C(=O)c2ccccc2)s1`, the “activity change, negative = inhibition” value was inactive: -24.6%.
For `COc1ccc(OC)c(CCNC(=O)CCn2ccc3cc(S(=O)(=O)N4CCCC4)ccc32)c1`, the Potency was inconclusive: 79.4 µM [inhibitor, single point].
`CCN1c2ccccc2N(C)C1(C)c1ccccc1` (stereo unspecified) was tested, and the Potency was active: 28.2 µM.
For `CCN(CC)c1ccc(/C=N/NC(=O)c2c(-c3ccccc3)noc2C)cc1`, the Potency was inconclusive: 31.6 µM [inhibitor, full curve].
For `CC(C)CCNC(=O)CN1C(=O)c2cccnc2Oc2ccccc21`, the “activity change, negative = inhibition” value was inactive: 4.53%.
In the case of `CN(C)c1ccc(N/C(=N\S(=O)(=O)c2cccs2)c2ccccc2)cc1`, the Potency was active: 44.7 µM.
For `CCCOc1ccc(C(=O)NNC(=O)CCNC(=O)c2ccco2)cc1OC`, the “activity change, negative = inhibition” value was inactive: 3.42%.
With `CN(C)c1ccc(C(CNC(=O)c2ccccc2F)N2CCc3ccccc32)cc1` (stereo unspecified) the Potency was active: 15.8 µM.
For `O=C(/C=N/O)NCCCn1ccnc1`, the Potency was active: 79.4 µM.
`CSc1ncccc1C(=O)N1CCCC(Nc2ccc(C)c(C)c2)C1` (stereo unspecified) was tested, and the Potency was inconclusive: 70.8 µM [inhibitor, partial curve].
`CCC1C/C(=C\c2cc(OC)c(OC)cc2OC)C(=O)/C(=C/c2cc(OC)c(OC)cc2OC)C1` (stereo unspecified) was tested, and the Potency was active: 10 µM.
`COc1ccc(NC(=S)NC(NC(=O)c2ccccc2Cl)C(Cl)(Cl)Cl)c([N+](=O)[O-])c1` (stereo unspecified) was tested, and the Potency was inconclusive: 28.2 µM [inhibitor, full curve].
`CCOc1ccc(NC(=O)C2CCCN(S(=O)(=O)c3c(C)noc3C)C2)cc1` (stereo unspecified) was tested, and the “activity change, negative = inhibition” value was inactive: -9.52%.
In the case of `Nc1c(C(=O)Nc2ccccc2)sc2ncc([N+](=O)[O-])cc12`, the “activity change, negative = inhibition” value was inactive: 2.55%.
In the case of `Cc1ccc2c(c1)c1c(n2CC(O)Cn2nc(C)c(Br)c2C)CCCC1` (stereo unspecified), the Potency was inconclusive: 39.8 µM [inhibitor, partial curve].
For `CN(C)C=NC(=O)c1cc(C(=O)c2ccc(Cl)cc2)c[nH]1`, the Potency was inconclusive: 79.4 µM [inhibitor, single point].
In the case of `Cc1ccc(-c2nc(Nc3cccc(O)c3)c3ccccc3n2)cc1`, the Potency was inconclusive: 79.4 µM [inhibitor, single point].
